# Some of the results follow. Sequences were assembled here from the parent chain. Values near 0.05 are background.
# B1: TEV protease; numbered along this chain (parent)
# chain: MGESLFKGPRDYNPISSSICHLTNESDGHTTSLYGIGFGPFIITNKHLFRRNNGTLVVQSLHGVFKVKDTTTLQQHLVDGRDMIIIRMPKDFPPFPQKLKFREPQREERICLVTTNFQTKSMSSMVSDTSCTFPSGDGIFWKHWIQTKDGQCGSPLVSTRDGFIVGIHSASNFTNTNNYFTSVPKNFMELLTNQEAQQWVSGWRLNADSVLWGGHKVFMVKPEEPFQPVKEATQL
# Variants of: B1
# Assay: raw area under fraction-flipped curve 0-4 h after induction (AUC4h, not background-subtracted), DNA-recorder readout of cleavage of the substrate (dimensionless); higher = more cleavage of the substrate by the protease variant
# Conditions: temperature: 34 °C; time window: 0-4 h after rhamnose induction
# Description: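 In vivo DNA recorder in E. coli TOP10(DE3) ΔrhaA at 34 °C. Each TEVp single-site mutant (parent TEVp 0) is paired with a single-site variant of the 7-mer TEVs (canonical ENLYFQ|S). The substrate sits between flexible linkers in a Bxb1-sfGFP-TEVs-SsrA fusion, so cleavage stabilises Bxb1 and speeds flipping of a recombination array, read by NGS. The value is the raw area under the fraction-flipped curve over 0-4 h after rhamnose induction (AUC4h), with ≥20 reads per time point. It is not background-subtracted; inactive controls average about 0.047.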
# 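Also: Bxb1 expression induced with 0.2% (w/v) L-rhamnose at OD600 near 0.5, cultures sampled hourly, flipped fraction per protease–substrate barcode pair counted by paired-end Illumina sequencing.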
Variant,area with substrate ENAYFQS,area with substrate ENCYFQS,area with substrate ENEYFQS,area with substrate ENFYFQS,area with substrate ENGYFQS,area with substrate ENIYFQS,area with substrate ENKYFQS,area with substrate ENMYFQS,area with substrate ENNYFQS,area with substrate ENPYFQS,area with substrate ENQYFQS,area with substrate ENRYFQS,area with substrate ENTYFQS,area with substrate ENVYFQS,area with substrate ENDYFQS,area with substrate ENHYFQS,area with substrate ENYYFQS,area with substrate ENSYFQS,area with substrate ENWYFQS
Q234P,0.0634,0.0601,0.0778,0.0411,0.0629,0.12,0.0615,0.0796,0.065,0.0602,0.0721,0.0671,0.0785,0.087,–,–,–,–,–
K216Y,0.0551,0.0438,–,0.0582,–,0.0525,–,–,–,–,0.0591,–,–,0.0647,0.0637,0.0519,0.0434,–,–
K216E,0.0664,–,–,–,–,–,–,–,0.0585,–,0.0619,0.0717,–,0.0692,0.0599,–,–,–,–
E231S,0.046,–,–,–,–,0.166,–,0.0744,–,0.0679,–,–,0.0604,0.0727,0.0653,0.0583,–,0.0509,–
E231D,0.0634,–,0.0499,–,–,–,0.0496,–,–,–,0.0548,0.0556,0.0955,0.0867,–,–,–,–,–
E231K,0.0318,–,–,–,0.0429,–,–,–,0.0659,–,0.0732,–,–,0.0874,–,0.0648,–,0.076,–
E231Y,0.0696,0.0791,0.0712,–,–,–,–,–,0.0577,0.0622,0.059,0.0504,–,0.0737,–,–,0.0507,0.0758,0.0031
H215Y,0.0447,–,0.0873,0.0624,0.0604,–,–,–,0.0782,–,0.0358,0.0722,–,0.0545,–,–,–,–,–
V229W,0.0479,0.0681,0.0583,0.0573,0.0604,0.0949,0.0507,0.0718,0.0655,0.0488,0.0579,0.0625,0.0636,0.0649,0.0685,0.0515,–,0.0827,–
V229N,0.0491,0.0647,–,–,0.07,0.0749,0.0474,0.0864,0.0693,0.0641,0.0668,0.0736,0.0634,0.0812,0.0727,0.0618,0.054,0.0668,–
W203H,0.0544,–,0.0575,0.0566,0.0733,0.0491,–,0.0999,–,–,0.0565,0.0644,0.0673,0.0686,0.0763,0.0572,0.0637,0.0569,0.0461
W203T,0.0586,0.0457,0.0513,0.0644,0.0621,0.0744,0.0562,0.057,–,–,0.0671,0.0472,–,0.0571,0.0619,0.0628,–,0.0644,–
W203F,0.0582,–,0.035,0.081,–,–,–,0.0637,0.0541,0.0571,0.0547,–,–,–,0.0531,–,–,0.0744,–
G213I,0.0691,–,0.0782,–,0.0547,0.0413,–,–,–,–,0.0574,0.0489,0.0428,–,0.0577,–,0.0479,–,0.0443
G213P,0.0735,–,0.0433,–,–,–,–,–,–,0.0604,0.0626,–,–,–,–,–,0.0627,–,–
E189Q,0.0671,–,0.0324,0.0661,–,–,–,–,0.0672,0.0737,0.0639,0.0543,0.0575,0.0767,–,–,0.0796,–,–
F226L,0.0487,–,–,0.0738,–,–,0.0773,0.0771,–,0.0573,0.056,–,0.0715,0.063,0.0646,–,–,0.0648,–

Variant,area with substrate ENAYFQS,area with substrate ENCYFQS,area with substrate ENEYFQS,area with substrate ENFYFQS,area with substrate ENGYFQS,area with substrate ENIYFQS,area with substrate ENKYFQS,area with substrate ENMYFQS,area with substrate ENNYFQS,area with substrate ENPYFQS,area with substrate ENQYFQS,area with substrate ENRYFQS,area with substrate ENTYFQS,area with substrate ENVYFQS,area with substrate ENDYFQS,area with substrate ENHYFQS,area with substrate ENYYFQS,area with substrate ENSYFQS,area with substrate ENWYFQS
A232D,0.0622,–,0.0549,0.0682,0.0579,–,–,0.0964,–,0.0583,0.0627,0.0567,0.0788,0.0871,0.0691,0.0728,0.0466,–,–
Q197L,0.0641,–,0.0643,0.0782,0.0499,–,0.0682,0.0942,0.0515,0.0502,0.0566,–,0.0669,0.0878,0.0745,–,–,0.0628,–
Q197H,0.0797,0.0689,–,–,–,–,0.083,–,–,–,0.0618,–,–,0.0698,0.0559,–,–,–,–
V217M,0.0545,0.076,0.062,0.0592,0.06,–,0.0605,0.0577,–,–,–,0.0543,–,0.0667,0.0639,0.0501,–,0.0731,0.0626
E223P,0.0533,0.0696,0.0663,0.0518,–,–,0.0576,–,0.0691,–,0.0467,0.0488,0.0619,0.0663,0.0636,–,0.0659,0.0682,–
L235R,0.034,–,–,–,–,–,–,–,–,–,0.0691,–,–,–,–,–,–,0.0419,–
L235W,0.0605,0.0636,0.0498,–,–,–,0.049,–,0.0621,0.0468,–,–,0.0635,0.0765,–,0.0831,–,0.0611,–
T233I,0.0661,0.063,0.0618,–,0.074,0.107,–,–,0.0455,–,0.0522,–,–,0.0611,0.0612,–,–,–,–
V220H,0.0524,0.0697,–,0.0587,0.0549,0.124,0.0557,–,–,0.0614,0.0628,0.0367,0.0554,0.0893,0.0546,0.0618,–,–,0.0066
V220K,0.0457,–,0.0681,0.0564,–,0.112,0.0784,–,–,–,–,–,0.0614,0.0884,0.066,–,0.04,0.0843,–
S209Q,0.0529,0.0678,0.0662,0.0606,–,–,0.053,0.0902,0.0493,–,0.0551,0.0518,0.0727,0.0668,0.0525,0.0667,0.0428,0.0641,–
S209M,0.0534,–,–,0.084,0.0647,–,–,0.0934,0.0935,0.0592,0.0597,–,0.0682,–,0.0665,0.0689,0.0673,–,–
E195I,0.054,0.0496,0.0539,0.0597,–,–,–,0.0669,0.0492,–,–,–,0.0593,–,0.057,–,–,0.0693,–
E195W,0.0784,–,–,–,–,0.079,0.0781,–,0.091,–,0.0576,–,0.0565,–,0.0565,–,–,0.0692,–
E195Q,0.0716,0.0867,–,–,–,–,0.0672,0.0984,0.0553,–,0.0743,0.059,–,0.083,–,–,–,0.0399,–
W199A,0.074,–,–,–,–,–,–,–,0.0624,–,–,0.0706,–,0.0538,0.0564,–,–,0.0764,–
